Source: the supplement of paper PMC3334620
In all, about 33,000 sequences were measured (“E-score (-0.5 to 0.5)”: median about -0.035, highest 2% from about 0.35 on). The list shows a part of the results.

molecular target: T1, Pdr3 (UniProt P33200); test: PBM E-score (8-mer binding enrichment) (E-score (-0.5 to 0.5)); higher = stronger / more preferred TF binding; most listed sequences are background and not binding sites; conditions: protein concentration: 200 nM; construct: GST-full length
T1 sequence: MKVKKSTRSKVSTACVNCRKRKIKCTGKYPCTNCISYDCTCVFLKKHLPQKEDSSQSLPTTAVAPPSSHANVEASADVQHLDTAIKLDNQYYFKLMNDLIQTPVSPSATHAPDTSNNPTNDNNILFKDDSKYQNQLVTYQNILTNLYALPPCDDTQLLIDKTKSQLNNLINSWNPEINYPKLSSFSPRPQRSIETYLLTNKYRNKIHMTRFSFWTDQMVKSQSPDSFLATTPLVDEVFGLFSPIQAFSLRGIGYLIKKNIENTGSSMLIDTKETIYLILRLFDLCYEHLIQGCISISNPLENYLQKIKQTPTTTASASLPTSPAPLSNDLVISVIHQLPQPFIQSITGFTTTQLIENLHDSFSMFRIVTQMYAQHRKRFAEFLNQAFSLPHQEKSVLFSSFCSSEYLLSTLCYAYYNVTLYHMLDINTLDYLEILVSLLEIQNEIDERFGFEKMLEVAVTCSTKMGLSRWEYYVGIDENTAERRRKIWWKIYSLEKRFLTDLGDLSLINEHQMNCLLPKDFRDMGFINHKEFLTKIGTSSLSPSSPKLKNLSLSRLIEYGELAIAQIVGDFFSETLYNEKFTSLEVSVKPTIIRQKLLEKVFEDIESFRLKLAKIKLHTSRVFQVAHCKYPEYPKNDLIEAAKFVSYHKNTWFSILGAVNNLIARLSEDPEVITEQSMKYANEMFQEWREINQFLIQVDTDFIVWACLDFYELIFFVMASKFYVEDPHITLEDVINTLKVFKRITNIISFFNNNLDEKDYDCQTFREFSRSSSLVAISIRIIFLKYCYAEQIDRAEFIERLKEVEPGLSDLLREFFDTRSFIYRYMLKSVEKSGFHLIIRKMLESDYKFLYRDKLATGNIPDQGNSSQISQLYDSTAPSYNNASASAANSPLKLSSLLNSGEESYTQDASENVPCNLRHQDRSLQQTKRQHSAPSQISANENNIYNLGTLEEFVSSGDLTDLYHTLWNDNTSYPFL
Summary of the method: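 Yeast transcription factors carrying a GST tag, as full-length proteins or DNA-binding domains, were produced by PURExpress in vitro transcription/translation. About 100-200 nM protein was applied to universal all-10-mer Agilent arrays, double-stranded by primer extension on fresh or once-stripped slides. Bound protein was detected with fluorescent anti-GST, and scans were normalised with masliner. The Universal PBM Analysis Suite gave each ungapped eight-base word, pooled with its reverse complement, an E-score, a modified Wilcoxon-Mann-Whitney statistic.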

Sequence | PBM E-score
AATGCCCC | 0.0531
ACACTAGT | -0.167
GATAGCTA | -0.00062
CGACTGAC | -0.188
GTACCAGA | -0.21
CAAATATC | 0.184
CCCGTACA | -0.0847
ACGCTTCT | -0.145
GAGCTGGA | -0.0583
GCCAACAC | 0.0219
GTGCAGTA | -0.0405
CAATCTTC | 0.0318
ATCTCGTG | -0.0801
ATTCCCCC | 0.0243
TGGTTTAA | -0.163
ATACGCAG | -0.25
CACGCCCC | 0.116
ATCACTCC | 0.0733
ATACATCC | 0.119
CAATTTCC | 0.262
GATGCAGC | -0.017
CAACTAGG | -0.159
AGCGCTGG | -0.0149
AGGCCGAT | 0.141
AACTTCCA | 0.0852

Sequence | PBM E-score
AATCCATT | 0.101
CGGGAGCA | 0.192
CACTTTGC | -0.103
GGTGCAGA | -0.13
ATGAACCC | 0.102
TATGTCCA | -0.0466
GCAGCAAC | 0.104
AAGCTAAC | -0.174
ATATTGAG | 0.0711
CTCCCTGA | -0.137
CACCAAAG | 0.083
CTACCTGA | -0.202
CCGTCTTC | 0.204
AATTGCCT | 0.0195
AGACCCAT | -0.0251
ACGGAGAA | 0.265
AAATAGTC | 0.0898
GAGAAGGC | -0.183
CGAGGTGA | 0.13
CCATGGGG | 0.0779
CACTCCCC | 0.225
GGAATCTA | 0.231
CACTCTGG | -0.174
AGCCAATA | -0.223
CACCACCC | 0.0174

Sequence | PBM E-score
CAACCGCA | 0.0919
ATGATCTC | 0.0123
CGTACTTA | -0.0288
AACTTGGG | 0.137
GACCGCCA | -0.00178
CGTGAGTA | 0.014
AAGCTCGC | -0.0095
AGGATCGG | 0.0965
AGACCCGC | 0.153
GATCAGCA | 0.0224
TAAATCAA | -0.0605
AGACCCCA | -0.0233
ACCGGAGG | 0.281
ATGAGACG | -0.119
TGAGCCCA | -0.209
ACAGAGGA | -0.0781
ACGGATCG | 0.236
CATATTGG | -0.263
CGATAGAA | -0.00477
CTTGGCGC | 0.123
GAAATCAA | 0.1
CAGTTCGC | 0.0332
AATAAAGC | -0.2
CACTGTAA | -0.0611
CTGACACA | -0.175

Sequence | PBM E-score
ATGTTCAG | -0.207
ACAAGAGT | -0.136
ATAAGAAG | 0.116
GAGGGGGC | -0.242
ATACGCCC | -0.0342
CATTACTA | -0.0628
AGGTTCTA | -0.25
ATCCACGA | -0.119
CAAGCAGC | -0.191
ACGGTCTA | -0.181
ACGTATTG | -0.0565
GCACGGAC | 0.356
TGCTTACA | -0.274
CGCGTCTA | -0.0418
AGCAACAG | -0.102
GCTCCGGA | 0.461
AGAAGGTA | -0.0743
AGTTGAGC | -0.085
CTGGCGAA | -0.0727
CCACAGGG | -0.176
AAGTCGAG | -0.262
AAAATGCT | 0.0418
ATCAGTGA | -0.145
GGAGTTAA | 0.0523
CGATGTCC | 0.213

Sequence | PBM E-score
CGTGGTCC | 0.00461
CCTATGAC | -0.258
CGAGGCAG | 0.034
ATTTCAAC | 0.0466
TCATGCGA | 0.0294
AAGTTGGG | -0.14
TACCTCTA | -0.124
CTCCGAGA | 0.274
CAGGGAGA | -0.24
ACGACGGA | 0.328
GGAAACTA | 0.203
ATTTCGCG | 0.254
AACTCTGC | -0.225
GTTCATTA | -0.0216
GTTTAGAA | -0.0239
CAGTCTTA | -0.225
GGCCCGCC | -0.002
GAAAATAA | -0.117
CATTGCTC | 0.0333
GAGACCCA | 0.0907
ACCAGGTG | -0.106
AACTAAGC | -0.108
GAAAACTC | 0.0853
ATTCGTTC | 0.24
ATCTGAGC | 0.0574

Sequence | PBM E-score
CTGAGATC | -0.00796
AGAAGGAC | -0.216
ACCTGACA | 0.0217
GGGTGTAC | 0.0547
ATTACTGG | -0.161
ACTATGTG | -0.00752
GTAGTCGA | -0.105
AGTACATG | -0.066
ACTTCCGG | 0.42
CAGCGGTC | -0.0607
ACCTGAAA | -0.137
AAGGGAGC | -0.109
AAGCATGT | -0.0953
GATAAAGC | -0.143
CCCAGTCA | -0.313
CCGGATCC | 0.433
GGAATTGA | 0.283
ACTAATGA | -0.0678
TCCGCTCA | 0.138
ATTGAAAC | -0.0481
GGGTTACA | 0.127
ACGTATTA | 0.23
CACTCGTA | -0.165
ATCCTACC | 0.0184
CTCGCAGA | -0.226

Sequence | PBM E-score
AGCCGGTG | 0.187
GAGGGTAC | -0.0671
AGGTGATC | 0.00785
ACGTCCAT | -0.224
AGCGCAGG | 0.00633
CGATCACG | 0.0265
CGGCCACG | 0.0533
CGCGAAGC | 0.27
ACAGTCTC | -0.169
CGGACTAC | 0.297
CAGCAGGC | -0.0427
ACTTAGAG | -0.354
GCACCTTA | -0.0794
CAGGATTC | 0.0167
TGATCACA | -0.0502
AGCAATGA | -0.0334
GGAGTTCA | 0.117
AGCAACGG | 0.291
ATGAGGCG | -0.00877
ATCGGTTG | -0.0143
ACGATAGT | -0.215
CTGGGGGC | -0.253
